Structures are written as SMILES. Some entries of the source have several records that differ or are many. This list holds those alone. An entry can have further records. The values listed for one entry are repeated measurements across runs, samples, wells, individuals or studies. Additions like (4×) give the number of equal values in this list. A date in brackets names the month of the test.

This assay concerns NCI-H1417 complex spheroids, growth % test/control. In words: Anticancer human tumor NCI-H1417 cell line growth inhibition [Asc].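 Note: spheroids exposed to compounds for 7 days; 100% = DMSO vehicle control wells.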 As to conditions: stronger effect = lower value. On the procedure:
Multicellular complex tumor spheroid response to apoptosis pathway targeting inhibitors Alrizomadlin, Pelcitoclax, and Dasminapant in combination with a variety of drugs and investigational agents in selected tumor cell lines
The MDM2 inhibitor alrizomadlin, the Bcl-2/Bcl-xL inhibitor pelcitoclax, and the IAPs inhibitor dasminapant were evaluated both individually and in combination with standard of care and investigational anticancer small molecules within a complex spheroid model of solid tumors. . Complex spheroids include a stromal component modeled by human endothelial cells (HUVEC) and fibroblasts modeled by human mesenchymal stem cells (MSCs). The concentration ranges selected for each drug and investigational agent were based upon clinically achievable concentrations if the clinical Cmax of the agent was known.
Compounds. […] If the clinical Cmax for an agent had not been determined, the highest concentration tested was 10 microM. […]

Take `CCN1C(C(=O)NC23CCC(C(=O)O)(CC2)CC3)C(c2cccc(Cl)c2F)C2(C(=O)Nc3cc(Cl)ccc32)C12CCCCC2` (configuration not stated): under “compound alone 0.949 µM”, the viability, T/C is 91, 95.5, 79.4, 98.6, 96.9, 86.7, 95.2, 88.4, 101 (2×), 96.3, 96.4, 88.2, 100, 117%. As for `CNC(C)C(=O)NC1CN(S(=O)(=O)c2cccc(S(=O)(=O)N3CCC4CCC(C(=O)NC(c5ccccc5)c5ccccc5)N4C(=O)C(NC(=O)C(C)NC)C3)c2)CCC2CCC(C(=O)NC(c3ccccc3)c3ccccc3)N2C1=O` (configuration not stated), the viability, T/C (compound alone 0.1 µM) was 109, 104, 86, 98.7, 99.2, 94.9, 91, 94.2, 99.5, 102, 82.6, 103, 92.6% [2022-10] and 99.2% [2022-11].

Source of the values: PubChem BioAssay AID1963440 (Molecular Pharmacology Branch, DTP, NCI, 2024).
